# Test results taken from the supplement of paper PMC3334620.
# The full ranking holds about 33,000 sequences; the median of “E-score (-0.5 to 0.5)” is about -0.016, and the highest 2% start at about 0.31. This is one part of the list.
# Biological target: Cst6 (UniProt P40535)
# Experiment: PBM E-score (8-mer binding enrichment) (E-score (-0.5 to 0.5)); higher = stronger / more preferred TF binding; most listed sequences are background and not binding sites
# Details: protein concentration: 200 nM; construct: GST-DNA-binding domain
# Method in brief: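 PURExpress in vitro transcription/translation supplied GST-tagged yeast transcription factors, either full-length or DNA-binding domain. Applied at about 100-200 nM to universal all-10-mer Agilent arrays double-stranded by primer extension, the bound protein was detected with fluorescent anti-GST. E-scores, modified Wilcoxon-Mann-Whitney statistics, were given by the Universal PBM Analysis Suite to ungapped eight-base words pooled with their reverse complements after masliner normalisation.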
row,Sequence,PBM E-score
1,ATACTCTC,-0.0323
2,CACGGGAA,-0.185
3,GAGAACCA,0.0429
4,ATACCCCC,-0.345
5,CGGGAAAC,-0.0865
6,AGGCTCAG,-0.115
7,CCTAGGTA,-0.191
8,GGCGGAAA,-0.0125
9,AGAGGAGC,-0.205
10,CCGCGAAC,-0.188
11,AACAGTTA,0.0317
12,ACGCGCCG,0.182
13,AATCCATG,0.0306
14,AAATTCAT,0.228
15,ATCGTCCG,0.133
16,ACTTCATG,0.0085
17,CACCCGTA,-0.0938
18,ACAGCCAC,0.034
19,CACCCTGG,-0.236
20,CCTCATGC,-0.15
21,AGGGCACT,-0.0161
22,ATCTCTTG,-0.135
23,CTCCCATA,-0.29
24,GCTACGCC,-0.193
25,GAGGGAAA,-0.0916

row,Sequence,PBM E-score
1,ATTGCAGA,0.146
2,CCGTAACC,-0.0836
3,CCTGAGGA,-0.157
4,CAAGTGGA,-0.172
5,AAACTTTA,0.151
6,AGCCGGAT,-0.191
7,AATCTGGT,-0.084
8,CACAACAA,0.134
9,CGTACTAC,0.0114
10,GAAACTTA,0.19
11,CGTAGAAA,0.0476
12,AGTTTTTA,0.257
13,AGGAAGCA,-0.216
14,AGATTCAT,-0.0798
15,CAGTCGCC,-0.122
16,TGAACCCA,-0.0205
17,ACCCCTAC,-0.213
18,AATAGGTG,-0.0703
19,CTTGGACA,-0.109
20,AGCCCTAT,-0.175
21,CTTACACC,-0.0382
22,AAAAACAT,0.183
23,GACCAAAC,0.0333
24,TAGTCCGA,-0.175
25,GCTCAGCA,0.0438

row,Sequence,PBM E-score
1,AAGTATTA,-0.00257
2,ACACCCGC,0.0688
3,CCAAATGG,-0.0413
4,AAGGCGTA,0.0577
5,CGGTTCGC,-0.0841
6,CGAGCAGC,-0.0327
7,GAGGATCA,-0.069
8,GTGGTTGA,-0.0661
9,AGATGGAA,-0.0939
10,AATTTAGT,0.235
11,TGCGGCCA,-0.00532
12,GCTTCGAC,-0.171
13,ACGTAGGG,-0.0499
14,ATAGGCTG,-0.0693
15,AGTCAGGG,-0.293
16,AGCCTTGC,-0.0321
17,ACTATGTC,0.0789
18,AGCCTACG,0.07
19,CATTGGAC,-0.0317
20,CGTAAATC,0.149
21,CGAGGTTA,-0.0824
22,CCTTTTTA,0.122
23,TGAGGCCA,0.0335
24,ACTGTGCA,-0.112
25,AAAACCTC,0.103

row,Sequence,PBM E-score
1,CGCCCTGC,-0.0262
2,GAGGGAGA,-0.319
3,ATTAAGCA,0.0979
4,CAGTGCTC,-0.139
5,TCGGTGAA,-0.139
6,AAGCTTAC,0.00659
7,TAACATGA,0.155
8,GCGAGTTA,0.1
9,CAGCTTCG,-0.0525
10,GACTTCGA,-0.00203
11,CGCAACCG,-0.131
12,GATTTAGA,-0.0338
13,CACGTACA,-0.0529
14,AGTCCGCC,-0.252
15,ATAGTAAG,0.167
16,CGGGGTGA,0.124
17,AGCGAGGC,-0.0448
18,AAGCGTAC,-0.13
19,ATAGGATG,0.0591
20,AATCTATA,0.272
21,AGGTTCCA,-0.124
22,AATGCGGT,-0.0337
23,CCTCCAGA,-0.111
24,AGGCAGAT,-0.0309
25,ACTCGGGG,-0.151

row,Sequence,PBM E-score
1,GGACTGTA,-0.0875
2,CGGCAAAC,0.0595
3,ACATCGCT,-0.0354
4,GCTCAGGA,-0.112
5,AAAGTGTT,0.0406
6,ACGAAGTA,-0.182
7,CGTTTTAG,-0.0359
8,GGACCACA,-0.223
9,TGAACGAA,0.0906
10,CAAGTGAA,0.0625
11,ATACACCC,-0.0469
12,ACTCCGCC,-0.282
13,ACTCACCC,-0.0424
14,TAGAACGA,0.134
15,AATATGTA,0.211
16,AGGTTCGC,-0.315
17,ACGACAGG,-0.00513
18,AAGAGAAG,0.026
19,AGCGTTGC,0.13
20,TAATCGCA,0.24
21,AGTCAGAG,-0.0315
22,CAACGGCG,0.132
23,AGTGTTGC,0.166
24,GGAGTCCA,-0.161
25,TAATTAAA,0.207

row,Sequence,PBM E-score
1,ATCATTGG,0.194
2,CATCCCTC,-0.0435
3,TAAATGCA,0.114
4,CTCCCGGC,-0.223
5,AAACGTCT,0.14
6,CGTTGTCA,0.0333
7,AAGTGGAT,-0.0702
8,AGGTCAGA,-0.15
9,ATGCTCGG,-0.0549
10,TTAGTCAA,0.0689
11,GATCTGTA,0.016
12,GTATCTGA,-0.0542
13,AGGTCATG,0.221
14,CCGTGACA,0.15
15,AGGCTTTG,-0.136
16,CGGGTGGC,-0.183
17,CCTCTAGA,-0.179
18,ATACTTGC,0.0726
19,GCGAGTAC,-0.0836
20,AGTCAGCA,0.195
21,ACAGGGGA,-0.218
22,CCTTGTCC,-0.129
23,TACGTGGA,0.157
24,CGTTGAAG,0.0825
25,CTCTGCTC,-0.211

row,Sequence,PBM E-score
1,AGCTTAAT,0.112
2,GACTGGGC,-0.31
3,GAATACTC,-0.0306
4,ACGTGGGG,-0.121
5,ATACGAGA,-0.041
6,CGATCTGC,-0.0699
7,GCGAGGTA,-0.0924
8,GTCGATGA,0.121
9,CCGAGGCC,-0.243
10,CAACTGTC,-0.0406
11,ATACTTCC,-0.115
12,AGTTGGAC,-0.0527
13,CTCCTTGA,-0.0988
14,ACCAAGCT,0.0602
15,CATGTTGG,-0.0314
16,GGCAATCA,0.0147
17,CACCAGGG,-0.226
18,ACGAGTAT,0.103
19,AGTCCCAG,-0.25
20,AAAAAATT,0.237
21,CCGTTAAC,-0.0117
22,GGGCCGCA,-0.0641
23,ATACCCTG,-0.0744
24,AGAATAAG,0.0844
25,CCTGTAGA,0.0625

row,Sequence,PBM E-score
1,GCCATCTA,-0.0441
2,AGATCAAA,0.105
3,CTAAGCCA,-0.271
4,CTGAGTAA,-0.0175
5,ATAATAAC,0.205
6,ACTCCACG,-0.114
7,AAATGAAG,0.173
8,AACGCGCA,0.11
9,ACTGCTGA,-0.0776
10,ACAAACCA,0.0273
11,ATGTGTAC,0.0111
12,AGCACTAC,-0.0567
13,ATGAGCTG,0.0155
14,ACCCTGCG,-0.00158
15,AAGTGCCT,-0.149
16,CAACCGGC,-0.139
17,ATTAGCTA,0.0716
18,ATTCGCCC,-0.268
19,ATAGCGCC,0.141
20,CAAGCAGA,0.00785
21,AACCTAAC,0.133
22,AAGGTGGG,-0.302
23,TGCCCAAA,-0.285
24,CCAGATAA,0.0644
25,GGCATTTA,0.0519

row,Sequence,PBM E-score
1,CCTGGTGC,-0.0554
2,GCGGAGGA,-0.355
3,AAACGGAA,0.183
4,ACGCGTGG,-0.0007
5,CCAGACGC,-0.205
6,CAACTAAC,0.179
7,CCTATGGA,-0.106
8,GAGTTCGA,0.106
9,AATCGGGG,-0.261
10,AGAAGAAA,0.18
11,AATATAGC,0.106
12,CGCGGGGC,-0.0534
13,GCTAGCAA,-0.143
14,CAGCCGCC,-0.0993
15,ACTAGAGC,-0.174
16,ACATAGGA,-0.0648
17,GCTCTCGA,-0.123
18,GAGGTCCC,-0.22
19,AATTATCG,0.316
